The campaign covered roughly 360,000 compounds. About 11,000 (3.1%) were called active. Inconclusive results, whose numbers are uncertain, are shown with a selection of clear calls. The call rests on the fitted dose curve; in most records, active means well fitted inhibition curve with a large enough effect; inconclusive means small, poorly fitted or top-dose-only effect; inactive means no such curve, though single readings can be large or run the other way. Potencies of inconclusive entries are left out as doubtful fits.
Each molecule was assayed against Schistosoma mansoni thioredoxin glutathione reductase (TGR) (UniProt Q962Y6) (assay: qHTS Assay for the Inhibitors of Schistosoma Mansoni Peroxiredoxins). Conditions: purified TGR, DTNB reduction, TNB absorbance 405 nm; series mostly up to 114 µM.
Method in brief: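 Kinetic colorimetric format: TGR-catalysed, NADPH-driven DTNB reduction monitored via TNB absorbance. Enzyme dispensed at 20 nM; compound exposure 15 min at room temperature before reaction start.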
COC(=O)CCC(=O)OC1(C)C(=O)C=C2C=C3CCCN3C=C2C1=O (stereo unspecified) was tested, and the Potency was inconclusive [inhibitor, partial curve]. For CC1=CC(c2ccc(Cl)cc2)n2nc(NC(=O)c3ccccc3)nc2N1 (stereo unspecified), the Potency was active: 44.7 µM. For Cc1cc(N2C(=O)C3C4CC(C(Br)C4Br)C3C2=O)no1 (stereo unspecified), the Potency was “inactive”. COc1ccccc1Nc1nc(N)nc(CN2CCCCCC2)n1 was tested, and the Potency was active: 31.6 µM. With Cc1ccccc1OCc1nc2ccccc2c(=O)n1/N=C/c1ccco1 the Potency was active: 39.8 µM. For CCOC(=O)C(NC(=O)CCl)(Nc1sc(C)c(CC)c1C#N)C(F)(F)F (stereo unspecified), the Potency was active: 15.8 µM. For CNC(=O)c1c(NC(=O)c2cccc(N3C(=O)CCC3=O)c2)sc2c1CCC2, the Potency was inconclusive [inhibitor, partial curve]. In the case of OCCN(Cc1ccccc1)CC(O)COc1ccc2c(c1)OCO2 (stereo unspecified), the Potency is reported as inconclusive [inhibitor, partial curve]. For CC(OC(=O)/C=C/c1cccs1)C(=O)NC1CCCCC1C (stereo unspecified), the Potency was inconclusive [inhibitor, full curve, poor fit]. For Oc1c(CN2CCCCC2)cc(Br)c2cccnc12, the Potency was inconclusive [inhibitor, full curve, poor fit]. For O=C(COc1ccc(Cl)cc1Cl)Nc1nc2n(n1)C(c1ccccc1)CC(=O)N2 (stereo unspecified), the Potency was “inactive”. For O=C(/C=C/c1ccccc1)c1ccc2c(c1)OCO2, the Potency was inconclusive [inhibitor, partial curve]. In the case of COc1cc(/C=N/N=C/c2cc(OC)c(O)c(OC)c2)cc(OC)c1O, the Potency is reported as inconclusive [inhibitor, partial curve]. COc1cc(C(=O)Oc2c(Sc3ccccc3)c(C)nn2-c2ccccc2)cc(OC)c1OC was tested, and the Potency was inconclusive [inhibitor, full curve, poor fit]. Cc1ccc(C)c(CN2C(=O)c3ccccc3S(=O)(=O)c3ccc(C(=O)N(C)C4CCCCC4)cc32)c1 was tested, and the Potency was “inactive”. COc1ccc(C)cc1NC(=O)CSc1ccc(-c2ccco2)nn1 was tested, and the Potency was inconclusive [inhibitor, full curve]. With CN1C(=O)C(=Cc2ccccc2OCc2ccccc2Cl)C(=O)N(C)C1=O the Potency was inconclusive [inhibitor, partial curve, poor fit]. In the case of CC1(C)Cc2c(c(N3CCCC3)nc3sc(C(=O)Nc4ccccc4)c(N)c23)CO1, the Potency is reported as “inactive”. For Cc1cccc(N/C=C(\[N+](=O)[O-])S(=O)(=O)c2ccccc2)c1, the Potency was inconclusive [inhibitor, partial curve]. In the case of Cc1ccc(CNC(=O)C2CCC(=O)N(CCc3ccccn3)C2)s1 (stereo unspecified), the Potency is reported as inconclusive [inhibitor, full curve, poor fit]. In the case of CCc1nnc(NC(=O)CSc2nccn2-c2ccc(OC)cc2)s1, the Potency is reported as inconclusive [inhibitor, single point]. For CCC(C)(C)n1nnnc1C(c1ccc(O)cc1)N1CCc2ccccc2C1 (stereo unspecified), the Potency was inconclusive [inhibitor, full curve, poor fit]. In the case of Cc1cccc2nc(-c3ccco3)c(Nc3ccc4c(c3)OCO4)n12, the Potency is reported as inconclusive [inhibitor, partial curve]. In the case of NS(=O)(=O)c1ccc(NC(=S)NC(=O)c2ccco2)cc1, the Potency is reported as active: 56.2 µM. For COCCNC(=O)c1cnn2c1NC(c1ccco1)CC2C(F)(F)F (stereo unspecified), the Potency was “inactive”. With COC(=O)[C@]1(S(=O)(=O)c2ccccc2)C[C@@H]2ON=C(c3ccc(OC)cc3)[C@@H]2C1 the Potency was inconclusive [inhibitor, partial curve, poor fit]. CN(C)CCCOC(=O)c1cc2ccccc2o1 was tested, and the Potency was inconclusive [inhibitor, full curve, poor fit]. For CCC(=O)N1CCc2cc(Br)cc(S(=O)(=O)N3CCC(C(=O)Nc4ccc(OC)cc4)CC3)c21, the Potency was “inactive”. With C=CCn1c(Cc2cccs2)nnc1SCC(=O)c1cccc(Br)c1 the Potency was inconclusive [inhibitor, full curve, poor fit]. With CCc1ccccc1NC(=O)c1ccc([N+](=O)[O-])s1 the Potency was inconclusive [inhibitor, full curve]. In the case of COCCNC(=S)Nc1ccc2nc(N3CCN(C)CC3)cc(C)c2c1, the Potency is reported as active: 39.8 µM. In the case of COc1ccc(C(=O)c2ccc(-c3ccc(OC)cc3)nc2)cc1, the Potency is reported as “inactive”. In the case of Cc1cc(C)c(NC(=O)Cn2c(=O)n(CC(=O)NCc3ccccc3Cl)c(=O)c3sccc32)c(C)c1, the Potency is reported as “inactive”. O=C(NCc1ccco1)c1cnc2ccccn2c1=O was tested, and the Potency was inconclusive [inhibitor, single point]. With Cc1ccc(CS(=O)Cc2ccc(C(=O)NC3CCCCCC3)o2)cc1 (stereo unspecified) the Potency was inconclusive [inhibitor, partial curve]. Cc1ccc(CCNC(=O)CCCn2nc(C)c3c(C)n(-c4ccccc4)nc3c2=O)cc1 was tested, and the Potency was inconclusive [inhibitor, partial curve]. In the case of Cc1c(C)c2cc3c(C)coc3cc2oc1=O, the Potency is reported as inconclusive [inhibitor, partial curve]. In the case of CC(=O)NC(=S)NNC(=O)c1ccc(Br)cc1, the Potency is reported as inconclusive [inhibitor, full curve, poor fit]. COc1ccc(CNC(=O)CSc2nc(-c3ccc(OC)cc3)cc(C(F)(F)F)n2)cc1 was tested, and the Potency was “inactive”. Cn1ccc(C(=O)OCC(=O)Nc2cccc(Cl)c2)n1 was tested, and the Potency was “inactive”. In the case of COc1ccc(OCC(=O)OC2CCN(C)CC2)cc1, the Potency is reported as “inactive”. In the case of O=C(CCl)Nc1cccc(-c2cnc3ccccc3n2)c1, the Potency is reported as inconclusive [inhibitor, partial curve, poor fit]. In the case of CC1(C)c2ccccc2-n2c1cc1oc(=O)cc(O)c1c2=O, the Potency is reported as “inactive”. With COc1ccc(-n2cnnc2SCC(=O)c2ccc(S(=O)(=O)N3CCOCC3)cc2)cc1 the Potency was “inactive”. In the case of CCCC(C)CO (stereo unspecified), the Potency is reported as “inactive”. For CN1CCN(S(=O)(=O)CC2(C)C3CCC2(C)C(=O)C3Br)CC1 (stereo unspecified), the Potency was inconclusive [inhibitor, single point].

Reference: PubChem BioAssay AID485364 (National Center for Advancing Translational Sciences (NCATS), 2010)
Further: nearly all actives have a fitted effect of over 60% in size.
Potency means the concentration at half of the fitted maximal effect; tags describe the fitted curve by direction and shape.
